{"source": "ChEMBL document CHEMBL4888484", "about": "“Replenishing the malaria drug discovery pipeline: Screening and hit evaluation of the MMV Hit Generation Library 1 (HGL1) against asexual blood stage Plasmodium falciparum ,using a nano luciferase reporter read-out” (2022)", "note": "The campaign covered roughly 150,000 compounds. About 540 (0.36%) showed an effect of 50% or more. The list shows a part of the results."}
{"test_system": "Plasmodium falciparum", "experiment": "Primary screen in NF54 nanoGlo assay, in single point, at 2uM, 72h; a lower Z score goes with more inhibition", "assay_type": "functional, Erythrocyte", "settings": "timepoint 72 hour", "units": {"% Inhibition": "%"}}
{"smiles": "COc1ccnc(N[C@H]2CCCCCN(C(=O)CN3C(=O)CN(C)C3=O)C2)n1", "% Inhibition": -6, "Z score": 0.85}
{"smiles": "Cc1cc(-n2cnnc2Cc2c[nH]c3ccccc23)n(C)n1", "% Inhibition": -15, "Z score": 1.29}
{"smiles": "CCOC(=O)Cn1cc2ccc(C)cc2n1", "% Inhibition": -1, "Z score": 0.11}
{"smiles": "N#Cc1cc2c(=O)n(Cc3ccccc3)ccc2nc1N1CCOCC1", "% Inhibition": 34, "Z score": -3.79}
{"smiles": "Fc1ccc(-c2ccc(CNCc3ccco3)o2)cc1Cl", "% Inhibition": -34, "Z score": 3.99}
{"smiles": "CN1CC=C(c2ccccc2)[C@@H](CO)C1", "% Inhibition": -7, "Z score": 1.39}
{"smiles": "CC(C)(N)C(=O)N1CCC[C@@]2(CCC(=O)N(CCc3ccccc3)C2)C1", "% Inhibition": -8, "Z score": 1.22}
{"smiles": "CCn1c(-c2cc(NC(=O)c3ccccc3F)[nH]n2)cc2c(OC)cccc21", "% Inhibition": -3, "Z score": 0.29}
{"smiles": "O=C(Nc1cccc2[nH]cnc12)c1ccc(=O)n(-c2ccccc2F)n1", "% Inhibition": -2, "Z score": 0.18}
{"smiles": "Cc1ccccc1N1CCN(C(=O)c2snc3c(=O)n(C)c(=O)[nH]c23)CC1", "% Inhibition": -3, "Z score": 0.47}
{"smiles": "N#CCc1cccc(C(=O)N(Cc2ccsc2)c2cccnc2)c1", "% Inhibition": -6, "Z score": 0.97}
{"smiles": "CCc1nnc(COc2cccc(F)c2C#N)n1C", "% Inhibition": -3, "Z score": 0.22}
{"smiles": "COc1ccccc1CCC(=O)N1CC2(C[C@H](N3CCCC3)CO2)C1", "% Inhibition": -4, "Z score": 0.65}
{"smiles": "CCOc1ccccc1NC(=O)C[C@H]1C(=O)Nc2ccccc2N1C(=O)c1ccc(C)cc1", "% Inhibition": 12, "Z score": -1.68}
{"smiles": "CC(C)c1nnc(NC(=O)CN2CCC[C@H]2c2ccnn2C)s1", "% Inhibition": -6, "Z score": 0.92}
{"smiles": "CC(C)Cc1nc2cc(NS(=O)(=O)N(C)C)cc(C(=O)N3CCC[C@H]3CO)c2n1C", "% Inhibition": -13, "Z score": 1.32}
{"smiles": "CO[C@H]1CCN(C(=O)CCc2nc3ccccc3[nH]2)C1", "% Inhibition": -19, "Z score": 2.41}
{"smiles": "CC(C)CN1C[C@H](OCc2cccc(F)c2)CN(C(=O)c2cccc3nccnc23)CC1=O", "% Inhibition": 1, "Z score": -0.2}
{"smiles": "CC(=O)NCC(=O)Nc1nnc(C2(c3ccccc3)CC2)s1", "% Inhibition": -7, "Z score": 0.71}
{"smiles": "CC(C)NC(=O)N1CCCCC[C@H]1c1ccccc1Cl", "% Inhibition": -3, "Z score": 0.46}
{"smiles": "O=C(Cc1cccnc1)N(Cc1ccccc1)CC1(O)CCCC1", "% Inhibition": 1, "Z score": -0.13}
{"smiles": "CC(=O)N1CCC(C(=O)N[C@H]2CCN3C(=O)N(c4ccc(F)c(Cl)c4)C(=O)[C@@H]3C2)CC1", "% Inhibition": 12, "Z score": -1.43}
{"smiles": "CC(C)OCc1noc(CN2CCC[C@@H]3COC[C@@H]32)n1", "% Inhibition": -10, "Z score": 1.75}
{"smiles": "O=C(c1ccnc(C2=CCCCC2)c1)N1CCOCC1", "% Inhibition": -7, "Z score": 1.51}
{"smiles": "Cc1cc(=O)[nH]c(Cn2cnc(-c3ccccc3)c2-c2ccc(N(C)C)nc2)n1", "% Inhibition": -19, "Z score": 1.87}
{"smiles": "Cc1noc(CN(C)C(=O)C2C3C(=O)N(CC(C)(C)C)C[C@@]34C=C[C@@H]2O4)n1", "note": "(stereo not given in full)", "% Inhibition": -8, "Z score": 1.36}
{"smiles": "Cc1cccc(N2CCN(C(=O)c3ccc(Cn4cncn4)cc3)CC2)c1C", "% Inhibition": -17, "Z score": 1.65}
{"smiles": "O=C(Nc1ccccc1)c1ccc(Oc2ccccc2)cc1", "% Inhibition": -9, "Z score": 1.33}
{"smiles": "CCC(c1ccc(F)cc1)c1nnc(-c2cccc(C3CCOC3)c2)o1", "note": "(stereo not given)", "% Inhibition": -21, "Z score": 2.27}
{"smiles": "CNC(=O)Cc1nc(CNc2ccc(F)cc2OCC2CC2)cs1", "% Inhibition": -13, "Z score": 1.5}
{"smiles": "CCc1noc(C)c1C(=O)N(C[C@H](O)c1ccccc1)C1CCCCC1", "% Inhibition": -7, "Z score": 1.46}
{"smiles": "CC(=O)N1c2ccccc2C[C@H]1c1nc(-c2cc(OC(F)F)ccc2F)no1", "% Inhibition": 8, "Z score": -1.35}
{"smiles": "OCC1(CCCc2ccccc2)CCN(C2Cc3ccccc3C2)CC1", "% Inhibition": -15, "Z score": 1.33}
{"smiles": "Cc1ccc(F)cc1C(=O)N1C[C@@H]2CC[C@H]1CN(S(=O)(=O)N(C)C)C2", "% Inhibition": -10, "Z score": 0.88}
{"smiles": "CCCNC(=O)CNC(=O)CCc1ccco1", "% Inhibition": -9, "Z score": 0.92}
{"smiles": "N#Cc1ccccc1Cn1cncc(-c2ccccc2)c1=O", "% Inhibition": -10, "Z score": 1.62}
{"smiles": "CN1CCN(C(=O)c2cccc(CNc3ccncn3)c2)C[C@@]12CCOC2", "% Inhibition": 2, "Z score": -0.3}
{"smiles": "COCCn1ccc(NC(=O)Nc2ccncc2C)n1", "% Inhibition": -14, "Z score": 2.62}
{"smiles": "CCCNC(=O)[C@@H](NC(=O)c1ccc(OC)cc1)C1CCN(C(=O)CC(C)(C)C)CC1", "% Inhibition": 4, "Z score": -0.58}
{"smiles": "C[C@@H](NC(=O)c1cc(N2CCNC(=O)C2)ccn1)C(F)(F)F", "% Inhibition": 4, "Z score": -0.68}
{"smiles": "CC[C@@H](C(=O)O)N1CCOc2ccccc2C1", "% Inhibition": -8, "Z score": 0.94}
{"smiles": "COc1ccc(C(=O)Nc2ccc(N3CCCN(Cc4cc(OC)cc(OC)c4)C3=O)cc2)cc1", "% Inhibition": -14, "Z score": 1.61}
{"smiles": "C[C@H](Oc1ccccc1)C(=O)N1CCC(CCOc2cccnc2)CC1", "% Inhibition": -14, "Z score": 2.66}
{"smiles": "CN(Cc1nccn1CC(F)(F)F)C(=O)CN1Cc2ccccc2C1", "% Inhibition": 4, "Z score": -0.6}
{"smiles": "CCOC(=O)c1ccc2c(c1)nc(-c1ccccc1NS(=O)(=O)c1ccc(OCC)cc1)n2CC", "% Inhibition": -14, "Z score": 2}
{"smiles": "O=C(CN1CCOC1=O)N1CCC2(CC1)CC(=O)N(C/C=C/c1ccccc1)C2", "% Inhibition": -1, "Z score": 0.14}
{"smiles": "Nc1nn(-c2cc(C(=O)O)cc(S(=O)(=O)N3CCCCCC3)c2)c2ccc(F)cc12", "% Inhibition": -19, "Z score": 2.04}
{"smiles": "CCn1c([C@H]2CCN(S(=O)(=O)c3c(C)noc3C)C2)nc2cccnc21", "% Inhibition": -9, "Z score": 1.06}
{"smiles": "Cc1ccc2cc(C(=O)OCCc3cn[nH]c3)ccc2n1", "% Inhibition": -18, "Z score": 2.03}
{"smiles": "Cc1n[nH]c(C)c1CCCNC(=O)Cc1ccncc1", "% Inhibition": -22, "Z score": 2.84}
{"smiles": "Cc1[nH]c(-c2ccc(F)cc2)cc1C(=O)NC1CCCCC1C", "note": "(stereo not given)", "% Inhibition": 0, "Z score": -0.05}
{"smiles": "Cc1ccccc1CN1CCCN(C(=O)Nc2nccs2)CC1", "% Inhibition": -6, "Z score": 1.22}
{"smiles": "CC(CC(=O)N1CCCC(c2nnn[nH]2)C1)c1ccccc1F", "note": "(stereo not given)", "% Inhibition": -2, "Z score": 0.34}
{"smiles": "Cc1ccc([C@@H](NC(=O)N2CCCCCC2)C(Cl)(Cl)Cl)cc1F", "% Inhibition": 7, "Z score": -0.93}
{"smiles": "N#Cc1c[nH]c(C(=O)NC2(c3nnc[nH]3)CCC2)c1", "% Inhibition": 2, "Z score": -0.19}
{"smiles": "C[C@@H](c1nccs1)N(C)C(=O)CCN1CCCCO1", "% Inhibition": -9, "Z score": 0.86}
{"smiles": "CCc1cc(CN[C@@H](C)c2ccc(OC)cc2)on1", "% Inhibition": -9, "Z score": 1.38}
{"smiles": "C[C@@H](c1ccc(Cl)cc1Cl)N(C)Cc1cc(-c2ccco2)on1", "% Inhibition": -7, "Z score": 0.71}
{"smiles": "CN(Cc1ccccc1)C(=O)Cn1cc(S(=O)(=O)Cc2cccc(Cl)c2)c2ccccc21", "% Inhibition": -9, "Z score": 1.5}
{"smiles": "O=C(CCc1cccc(F)c1F)N(CC(F)(F)F)c1ccccn1", "% Inhibition": 4, "Z score": -0.4}
{"smiles": "CC(C)(C)[C@H]1OCC[C@@H]1c1noc(-c2ccc3c(c2)CCCCC3=O)n1", "% Inhibition": 23, "Z score": -2.07}
{"smiles": "Cc1cc(C)cc([C@@H](O)COc2cc(C)c(C)nn2)c1", "% Inhibition": -8, "Z score": 1.19}
{"smiles": "CCn1c(C)nnc1CNC1CCCCC1n1cccn1", "note": "(stereo not given)", "% Inhibition": -1, "Z score": 0.17}
{"smiles": "Cc1ccc(O)c(CNc2ccc(S(=O)(=O)Nc3nccs3)cc2)c1", "% Inhibition": -3, "Z score": 0.37}
{"smiles": "CNC(=O)Nc1ccc(Br)cc1-c1nc(C2CC2)no1", "% Inhibition": -10, "Z score": 1.1}
{"smiles": "CC[C@@H](C(=O)NCc1cnn2cccnc12)n1cccn1", "% Inhibition": -13, "Z score": 1.29}
{"smiles": "C[C@@H](NC(=O)Nc1ccc(F)cn1)c1ccccc1", "% Inhibition": -10, "Z score": 1.08}
{"smiles": "O=C1CC[C@@]2(CCCN(C(=O)CC3CCCC3)C2)CN1CCc1c[nH]cn1", "% Inhibition": 4, "Z score": -0.48}
{"smiles": "O=C(Nc1nc(-c2ccccc2)cs1)N1CCC[C@@H]1CO", "% Inhibition": -10, "Z score": 1.58}
{"smiles": "Cc1nc([C@@H]2CCCN2Cc2c(C)nsc2C)[nH]c1C", "% Inhibition": -10, "Z score": 1.19}
{"smiles": "O=C(CNCC1CC1)N1CCN(c2ccccc2)CC1", "% Inhibition": -12, "Z score": 1.68}
{"smiles": "CCc1c(C)nc(N)nc1N1CCOCC1", "% Inhibition": -2, "Z score": 0.26}
{"smiles": "C=CCNC(=O)N1CCC2(CC1)CCS(=O)(=O)CC2", "% Inhibition": -4, "Z score": 0.45}
{"smiles": "CCn1cc(CN(C)[C@@H](C)C(=O)N(C)C)cn1", "% Inhibition": -17, "Z score": 2.04}
{"smiles": "CCn1c([C@H](C)Oc2ccccc2F)nnc1N1CCC(OC)CC1", "% Inhibition": -1, "Z score": 0.18}
{"smiles": "CC(C)[C@H](NC(=O)c1ccc(-c2cc(N)ncn2)cc1)c1nccn1C", "% Inhibition": -3, "Z score": 0.53}
{"smiles": "CC1CN(C(=O)c2cnc3ccccc3n2)CC(C)O1", "note": "(stereo not given)", "% Inhibition": 0, "Z score": -0.02}
{"smiles": "Cc1ccnc(Oc2cccc(C(=O)N3CCCC3)c2)n1", "% Inhibition": -4, "Z score": 0.55}
{"smiles": "CCC(Oc1ccc2c(c1)C(c1ccc(C)cc1)N(C(=O)CC(C)C)CC2)C(=O)N(C)Cc1ccco1", "note": "(stereo not given)", "% Inhibition": -17, "Z score": 2.62}
{"smiles": "Cc1cc(Br)ccc1CN[C@@H](C)CC(=O)N(C)C", "% Inhibition": 1, "Z score": -0.17}
{"smiles": "CC(C)(C)n1ncnc1CC[C@@H]1NC(=O)NC1=O", "% Inhibition": -8, "Z score": 1.02}
{"smiles": "Cn1c(-c2ccncc2)nc2cc(C(=O)NCCc3cccs3)cc(NC(=O)C3CCC3)c21", "% Inhibition": -7, "Z score": 0.78}
{"smiles": "Nc1ccnc2c(-c3ccncc3)cccc12", "% Inhibition": -2, "Z score": 0.26}
{"smiles": "CCCN1CCC[C@H](Nc2ncc(CC)cn2)C1", "% Inhibition": -3, "Z score": 0.48}
{"smiles": "COc1ccsc1S(=O)(=O)N(C)c1cnccn1", "% Inhibition": -3, "Z score": 0.35}
